Laboratory results published in the supplement of paper PMC12632987.
Over roughly 4,500 sequences, “median log2 fold change of GCK-ALFA target abundance (FLAG IP / Myc IP barcode read proportion)” has its median near 0.078; the lowest 2% begin near -0.6. The list shows a part of the results.

B1: GBRAP_153_3951 (protein)
chain: SMKEEELKKKALELIEKIKKTGGDEELIKEFAELIKELNEENKKEIFKELDSLPEELIKKIVKTLIKEGGISPEEIISWIVGTSEETEAAILEAIVEASK
B2: GBRAP_160_4502 (protein)
chain: SEKLEEAFKYLDEEKELAIEAAKEVSDEDAVKIIEAYAGLMIEYLKEEYGASEEAVDKMMKKVDEIVEKLKSIPNLTDEDVEKAIEEIREFFKKLLKEES
B3: GBRAP_52_6192 (protein)
chain: MREELRRRVREILALVRAGRLEEARRAARELVARLNDEELRLLTEVLAEVAAEAPLEDEDAVFRTAELLAEAMEEAGKDEVLAEDLLAAAARALYAKHLA
B4: GBRAP_43_5780 (protein)
chain: SKELVDGAFETALLAAEEPNIPEETKVKIIKLAFELAADEGYIDEEKLKEIIDAAGKSLSAEALKKIKEHLLKIAKEHPEFAEKFKEAAEKVEKYIKEKE
B5: GBRAP_125_3087 (protein)
chain: MEEEALEYAGIILAAFGFSEEEIEEFKRASEGSTVKTILQALVLAMDLPEAAEKSLELTDEEAYAVLKEVADYIKAHPDLTPEEVKAKLAEAIDKALAAS
B6: GBRAP_160_4735 (protein)
chain: MEKIKELVEEAKKLFLETVELTKDLSKEEQRALFEGAAGEALMDFIEDPNISDEMEDTAAEMLDELVAELVANYDASVEEKKKIVEEKMEELLKKLLEIA
B7: GBRAP_83_6976 (protein)
chain: KEEITVASPADRIEEAVEIAIDLHKNEGYKVTFEIIVRPEDLEKALEEIERLLKAIKDVEIEVVLEGATEEEAEALLKELKEIAAKLGANSKITVHLVEP
B8: GBRAP_11_2648 (protein)
chain: SKEVLLRAAELARELAETLARLIEEGVDNEELIAEAERLLEELARLAEEHLDEAIRSDVAVARELWAEFLADEANREEYARQLLAAVRVLEGNLLLAADE
B9: GBRAP_78_6706 (protein)
chain: GVEEKLEKAIEELGKAAKLLVKEGTELANDALGELVDAETYLWEAIEKGADLELLKKAKESLEKAIELAKKLDVPNKEEILKHLEKALKLVEEAIKEVEK
B10: GBRAP_11_2659 (protein)
chain: KKEIYKEAAKLAEKAAEALKKLIKEGVDNEELIKKIEELLKEIKKLAEEYLDEATKSDVKVAEELWKKFKEDKENQLEYAKELLAAVRVLEGNLLLEADE
B11: GBRAP_52_6282 (protein)
chain: SMEEVEKVAKEIVALVKAGDLDAALALAKKFAKEASLEEVKELAKLLIKELATLSPEQQELMFEVIEALAKELEKRFGEEEEADILEAEAAAAIYKQLQK
B12: GBRAP_11_2792 (protein)
chain: KKELLKELAEVLKEAAELLERLLASGLDDEELWEELRELLKKAEELAKKAGDEFTAELLRYAAEELERAREDPERAQEHVERALALVRVAEGQVLLAIEE
B13: GBRAP_14_3866 (protein)
chain: KETALKIVEEAIEEAREELKKAFPEKEELIEKVAEEIRKYAKEKLEKEEDIEEAMEEIKEYALKKVKEAFADLPPEDQAAALTIVDNEFLEADLEIEEKK
B14: GBRAP_160_4478 (protein)
chain: SEKVKEAAEELRKDVEEVLEESKDASPEQLALAVSVELGSNLMEFSSEGKINDEQEDIVIEAMDEIRELGEREKDASVEEVKERIREIVEEMVEKILEAA
B15: GBRAP_160_4308 (protein)
chain: MEELEKLKKEIKEITEEALKMIEGQTAEQQKTIVRVTLGEILLLAFENPAISDELEEEIGKIADEAEEYLDANPDLSEEEIKELLKKTTEKILELIDKSL
B16: GBRAP_160_4522 (protein)
chain: SERLERIKELLEEAAEEAKKMIEGETAEQRAVIVDGEFGSLAMELALDPEVSDEEVDVVLEERDKLVATILANPDLTDEEVKELIEEAVERIKKKLEELF
B17: GBRAP_35_5543 (protein)
chain: SSDEEIAEMLVNTMEDIVLALPDVDDETFIALTEHLIRLAKDLVELKPKDKELIERAIEVLEEAIEIVKKSSLPEETRERLIEELEELKEELEKILKEVK
B18: GBRAP_52_6334 (protein)
chain: MEERIEEVARKIVEAVEAGKEEEAIELTKELAKEFSLEEVRRAMRLFAELAVARLPDREDLVMETAEKLADVIEEVTGDEVLADEFEAYTAALLHAARLA
B19: GBRAP_128_3315 (protein)
chain: MDEEKLEEAERLVEEMKKADLEELAELTARLVDLMGTLTPEEREIVAEIFREALKELSAEKLDVVADVLREKRPSLDPETANIVADLEVEALNEAEEKEE
B20: GBRAP_57_6470 (protein)
chain: EERLKKVEEHGEKALALIEAGAPTEEVLAEIGKMLEELSEETLRDILLIADPEAEYDISKEEAIARLLALARAYLEAGDTEAVRRLVELIEGQAEMDSEE
B21: GBRAP_43_5739 (protein)
chain: DQEVVDAAAEVALLALESEELDDETKIRIIKDFLEVFADSGLPGEELAKELAEKLDNYENPENVEEAIKLAKELAKKNPKYKKTFEAIAEYLKKLLEKLK
B22: GBRAP_14_3799 (protein)
chain: MEEREKAIEEITEETLEILEEILADAPEEVRERVLELVEEARERIIKEKLSPDEIAELEDELLEEVAKILADAPPEVRAQVLAAISVGMGEIILEVEELE
B23: GBRAP_184_5156 (protein)
chain: KILERVIEAENLEELKEKMEEVKEEAKKEKAEVIILLKTKKLTKEMVDALAEKIKEMKEEGYVKSITVGIDADVTEEMADYAIEKLDKAGAKVAIALPDE
B24: GBRAP_52_5882 (protein)
chain: SLEEAKKLLKEMIKAVAAGKEEEAKKIAKEIVEKFDDETIIEAVKELAEEIKSKSLEEAKAFYEAMELLAEVMEEMGRDPEVASLIEAIAGAALYEVEQK
B25: GBRAP_139_3742 (protein)
chain: SEMEKKVEEAAKKVAELKDDPEAVADYLTETIASVDEETAEKIARAAVEVLADLPVEERLALDDLILDKLEEAGVDEDKITIVEAELNGGLARHAYAEEL
B26: GBRAP_57_6474 (protein)
chain: SERLKKAEEYAEKALKAIEEGAPEEEILELVRKLAEQLSEESLRDVLLIADPSAEYDVSKEEAIEAIVALARKYLEAGDYEGLRRLVELLEGTAEMEHFE
B27: GBRAP_160_4509 (protein)
chain: SEKLEEIKKEIDEAREEIKREIEEGTVEEAIIVAAVELGEVIMELVEDESFSDEAEDAAAEIRDELVEELKRNKDASVEELKKIVDEKTEELKKTLKELS
B28: GBRAP_160_3990 (protein)
chain: EEKKKELLKEIEEIFKETYELAKGENPENRLTVVEVNMGEILLLAEESGILSEETIEKIDEILDETVEKVKANPNMTDEELKKLLDESLEKIKKIIEEEK
B29: GBRAP_125_3022 (protein)
chain: SKEELVEMLGAIAKALGFSEEDVEEIMRLAREHGLKGALIAIALALGEEELAELLEKLSEEEVAEVVKRLYEWLKAHPDATPEEVKEKLLELAKEAVEKK

molecular target: GABARAP, O95166; test: median log2 fold change of GCK-ALFA target abundance (FLAG IP / Myc IP barcode read proportion) (log2 ratio); each designed protein is fused to an ALFA-tag nanobody in HEK293 cells to bring the named protein to FLAG-tagged glucokinase (GCK); Myc marks an untargeted standard; higher = target protein stabilised (more abundant); settings: target protein: 3xFLAG-MCP-GCK-ALFA reporter; HEK293 landing pad (RPLP)
Method in brief: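 An ALFA-nanobody-fused binder library was recombined into HEK293 landing-pad cells and induced with 2 μg mL^−1 doxycycline. Cells were transfected with a plasmid expressing a FLAG-tagged target and a Myc-tagged standard. After 48 h, lysates underwent anti-FLAG and anti-Myc immunoprecipitation, and circular RNA barcodes were reverse transcribed, amplified and sequenced. Target abundance is the per-binder median log2 ratio of FLAG to Myc barcode read proportions. Barcodes needed ≥10^−7 proportion in both replicates, binders ≥3 barcodes per replicate, and a 10^−6 pseudocount was added; the two replicates were pooled.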

Chain of GABARAP, O95166 (O95166 whole entry, the tested form may be a part): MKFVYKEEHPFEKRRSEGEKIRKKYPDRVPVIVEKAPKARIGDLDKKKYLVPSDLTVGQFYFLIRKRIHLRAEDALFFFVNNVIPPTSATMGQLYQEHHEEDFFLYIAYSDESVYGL

| Binder | median log2 fold change |
| --- | --- |
| B1 | 0.317 |
| B2 | 0.16 |
| B3 | 0.013 |
| B4 | -0.28 |
| B5 | 0.142 |
| B6 | -0.537 |
| B7 | -1.64e-05 |
| B8 | 0.122 |
| B9 | 0.207 |
| B10 | 0.282 |
| B11 | 0.137 |
| B12 | -0.348 |
| B13 | 0.664 |
| B14 | 0.00647 |
| B15 | -0.463 |
| B16 | 0.0223 |
| B17 | 0.204 |
| B18 | -0.16 |
| B19 | 0.335 |
| B20 | 0.218 |
| B21 | -0.00175 |
| B22 | -0.611 |
| B23 | 0.013 |
| B24 | 0.174 |
| B25 | 0.187 |
| B26 | 0.242 |
| B27 | 0.149 |
| B28 | -0.0665 |
| B29 | 0.0394 |
